Over roughly 81,000 sequences, “one-hybrid fitness for binding NBS DNA” has its median near -0.1; the highest 2% begin near 0.36. This is one part of the list.
B1: Caulobacter ParB omega fusion; a variant is named by its letters at X, in order, B8GW30 (parent)
chain: MESVVVGEPGMSEGRRGLGRGLSALLGEVDAAPAQAPGEQLGGSREAPIEILQRNPDQPRRTFREEDLEDLSNSIREKGVLQPILVRPSPDTAGEYQIVAGERAWRAAQRAGLKTVPIMVRELDDLAVLEIGIIENVQRADLNVLEEALSYKVLMEKFERTQENIAQTIGKSXSHVANXMRLLXLPDEVQSYLVSGELTAXHARAIAAAADPVALAKQIIEGGLSVRETEALARKAPNLSAGKSKGGRPPRVKDTDTQALESDLSSVLGLDVSIDHRGSTGTLTITYATLEQLDDLCNRLTRGI

Variants of: B1
Assay: one-hybrid fitness for binding NBS DNA (the Noc-binding site; scaled: cognate 1, non-cognate 0); higher = stronger binding
Conditions: with NBS DNA site
Procedure, shortened: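 Fitness is the rescaled log change in variant-to-wild-type read ratio, measured by Illumina sequencing of plasmids before and after bacterial one-hybrid selection. The scale puts cognate at 1 and non-cognate at 0. Selection of Caulobacter ParB libraries, four specificity codons randomised, took place in E. coli USO with a HIS3 reporter, site 19 bp from the promoter, over 48 hours at 37°C on M9-minus-histidine with 0.1 mM IPTG and 5 mM 3-AT.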

Variant	one-hybrid fitness for binding NBS DNA
YSPT	≤ 0.2
GSML	≤ 0.2
PNDF	≤ 0.2
VVAW	≤ 0.2
QYYI	≤ 0.2
TLHV	≤ 0.2
ATTG	≤ 0.2
IAQV	≤ 0.2
IAVL	≤ 0.2
IRHN	≤ 0.2
YAAC	≤ 0.2
IESR	≤ 0.2
QHLC	≤ 0.2
PDYT	≤ 0.2
PNFI	≤ 0.2
SKSC	≤ 0.2
EEGT	≤ 0.2
EMNR	≤ 0.2
GIYG	≤ 0.2
NERS	≤ 0.2
RFMW	≤ 0.2
RCYL	≤ 0.2
SVQP	≤ 0.2
TRLI	≤ 0.2
CADC	≤ 0.2
LCPN	≤ 0.2

Variant	one-hybrid fitness for binding NBS DNA
SSDC	≤ 0.2
RKVR	0.478
GMNC	≤ 0.2
LGPI	≤ 0.2
WCSG	≤ 0.2
TAHT	≤ 0.2
KNKF	≤ 0.2
FRRA	≤ 0.2
NDWR	≤ 0.2
CPRD	≤ 0.2
KPSQ	≤ 0.2
TQVG	≤ 0.2
VCKL	≤ 0.2
TWTW	≤ 0.2
IDSA	≤ 0.2
RCRN	0.23
HFAA	≤ 0.2
TQSH	≤ 0.2
AAPG	≤ 0.2
TACG	≤ 0.2
PRFW	≤ 0.2
YKYR	≤ 0.2
LRQR	≤ 0.2
CSRV	≤ 0.2
TQYS	≤ 0.2
MITW	≤ 0.2

Variant	one-hybrid fitness for binding NBS DNA
RFLL	≤ 0.2
LNAP	≤ 0.2
RSWE	≤ 0.2
RPMT	≤ 0.2
PRAN	≤ 0.2
NRLF	≤ 0.2
PPWD	≤ 0.2
STLA	≤ 0.2
LDRL	≤ 0.2
QLKN	0.365
RLHY	≤ 0.2
RMSN	≤ 0.2
SMHE	≤ 0.2
RMCC	≤ 0.2
GSTS	≤ 0.2
MLYE	≤ 0.2
LCFG	≤ 0.2
MYAV	≤ 0.2
PGSL	≤ 0.2
EVFG	≤ 0.2
KYHF	≤ 0.2
PKMT	≤ 0.2
VCRS	≤ 0.2
CMNL	≤ 0.2
CHQC	≤ 0.2
TTNV	≤ 0.2

Variant	one-hybrid fitness for binding NBS DNA
HVVS	≤ 0.2
RYGV	≤ 0.2
IAGL	≤ 0.2
RNMC	≤ 0.2
TVCC	≤ 0.2
FMGG	≤ 0.2
LKYT	≤ 0.2
KAKI	≤ 0.2
ATWF	≤ 0.2
PKFP	≤ 0.2
YYPR	≤ 0.2
WTGS	≤ 0.2
LMEG	≤ 0.2
MGRH	≤ 0.2
TRPY	≤ 0.2
HHIR	≤ 0.2
DRNY	≤ 0.2
WFGC	≤ 0.2
HISY	≤ 0.2
PWQK	≤ 0.2
LTKL	≤ 0.2
EAYN	≤ 0.2
QRYD	0.222
YVYS	≤ 0.2
MTGA	≤ 0.2
SQAF	≤ 0.2

Variant	one-hybrid fitness for binding NBS DNA
DQKV	≤ 0.2
PDHF	≤ 0.2
ETMS	≤ 0.2
AFGG	≤ 0.2
KSTE	≤ 0.2
SGQR	≤ 0.2
KPVS	≤ 0.2
WFHR	≤ 0.2
SCHA	≤ 0.2
QSYS	0.337
ATTM	≤ 0.2
QCPL	≤ 0.2
AWSC	≤ 0.2
QKTS	0.475
CIES	≤ 0.2
HNIL	≤ 0.2
FQVS	≤ 0.2
WCPC	≤ 0.2
RCTR	0.534
NCNR	≤ 0.2
LIAY	≤ 0.2
MPSF	≤ 0.2
GYIM	≤ 0.2
PTPV	≤ 0.2
EDVG	≤ 0.2
KVFG	≤ 0.2

Variant	one-hybrid fitness for binding NBS DNA
LVEF	≤ 0.2
CTHR	≤ 0.2
KKLV	≤ 0.2
RILS	0.205
KCSE	≤ 0.2
KYLC	≤ 0.2
ASTG	≤ 0.2
VHLR	≤ 0.2
GQKN	≤ 0.2
QSKT	0.699
DMSV	≤ 0.2
KLSG	≤ 0.2
VRCC	≤ 0.2
NRHC	≤ 0.2
DKTV	≤ 0.2
HTEM	≤ 0.2
NSNR	≤ 0.2
DREC	≤ 0.2
CVDG	≤ 0.2
GTAL	≤ 0.2
NSRV	≤ 0.2
IEPE	≤ 0.2
HETW	≤ 0.2

From a collection of fitness landscapes (doi:10.1016/j.celrep.2020.107928)
